{
  "source": "PubChem BioAssay AID504845",
  "about": "(National Center for Advancing Translational Sciences (NCATS), 2011)",
  "note": "Among all 390,000 compounds or so, about 150 (0.038%) were called active. The inconclusive results got no clear call from the source; some entries with a clear call stand among them for comparison. The call rests on the fitted dose curve; in most records, active means well fitted inhibition curve with a large enough effect; inconclusive means small, poorly fitted or top-dose-only effect; inactive means no such curve, though single readings can be large or run the other way. Where the call is inconclusive, the potency comes from a doubtful curve fit. On the % scale 0 is the no-effect control and ±100 the full control effect; potency means the concentration at half of the fitted maximal effect; tags describe the fitted curve by direction and shape.",
  "data": [
    {"target": "Regulator of G-protein signaling 4 (Homo sapiens) (UniProt P49798)", "sequence (P49798 whole entry, looked up)": "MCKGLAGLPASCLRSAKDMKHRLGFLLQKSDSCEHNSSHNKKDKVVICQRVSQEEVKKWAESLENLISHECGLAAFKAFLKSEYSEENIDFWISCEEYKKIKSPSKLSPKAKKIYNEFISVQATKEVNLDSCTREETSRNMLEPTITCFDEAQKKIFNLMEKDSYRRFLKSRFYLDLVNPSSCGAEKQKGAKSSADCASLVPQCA", "assay": "Inhibitors of Regulator of G Protein Signaling (RGS) 4: qHTS; further: nearly all actives have a fitted effect of over 75% in size", "conditions": "Transcreener GDP fluorescence polarization, RGS4-accelerated GTP hydrolysis; series mostly up to 114 µM; activity change, negative = inhibition: at the top concentration", "method_in_brief": "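MLSMR compounds (23 nl, pin-transferred) preincubated 10 min at room temperature with a 500nM (2x) first reagent, then RGS4 at 900nM (2x) plus Transcreener GDP mix added; fluorescence polarization (620/688 nm) read before and after 90 min at 30 °C.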", "values": [
      {"smiles": "O=C(CCNS(=O)(=O)c1cccc2nonc12)NC1CCCCCC1", "Potency": "inconclusive: 79.4 µM [inhibitor, partial curve, poor fit]"},
      {"smiles": "O=[N+]([O-])c1cc(Cl)cc(/C=N/Nc2nc3ccccc3s2)c1O", "Potency": "inconclusive: 50.1 µM [inhibitor, partial curve, poor fit]"},
      {"smiles": "Nc1nc2nc(-c3ccc(Cl)cc3)cc(C(F)(F)F)n2n1", "Potency": "inactive"},
      {"smiles": "Cc1nc(S(=O)(=O)N2CCOCC2)c(C#N)c(C)c1Cl", "Potency": "inconclusive: 89.1 µM [inhibitor, single point]"},
      {"smiles": "CC1CC(C)CN(C(=O)c2ccc(-c3ccc([N+](=O)[O-])cc3)o2)C1", "note": "(stereo not given)", "Potency": "inconclusive: 31.6 µM [inhibitor, full curve, poor fit]"},
      {"smiles": "CC(=O)Nc1ccc(C(=O)Nc2nc(-c3cccnc3)cs2)cc1", "Potency": "inconclusive: 28.2 µM [inhibitor, full curve, poor fit]"},
      {"smiles": "CN(C)C(=O)CCc1ccc2c3c([nH]c2c1)[C@]1(CCc2ccccc2)[C@@H](C(=O)N2CCCCC2)C[C@H](CC(=O)NCc2cccc(C(F)(F)F)c2)C(=O)N1CC3", "Potency": "inconclusive: 79.4 µM [inhibitor, partial curve, poor fit]"},
      {"smiles": "Nc1nc(N)c2ncc(C(=O)CCc3ccccc3)nc2n1", "Potency": "inconclusive: 28.2 µM [inhibitor, full curve, poor fit]"},
      {"smiles": "Cc1ccc(/C=C2/NC(=O)N(c3ccccc3)C2=O)o1", "Potency": "inconclusive: 79.4 µM [inhibitor, partial curve, poor fit]"},
      {"smiles": "Cc1ccc(C(=O)CSc2nnc(C(C)C)n2C)cc1C", "Potency": "inconclusive: 79.4 µM [inhibitor, single point]"},
      {"smiles": "O=c1c2ccccc2nc(/C=C/c2cc(Br)ccc2O)n1CCO", "activity change, negative = inhibition": "inactive: -6.71%"},
      {"smiles": "CCN(CC(=O)NCCc1ccccc1)S(=O)(=O)c1ccccc1", "Potency": "inconclusive: 89.1 µM [inhibitor, partial curve, poor fit]"},
      {"smiles": "N=C(N)c1ccc(Cl)cc1", "activity change, negative = inhibition": "inactive: 6.47%"},
      {"smiles": "O=C(O)/C=C/c1ccc2c(-c3ccccc3)onc2c1", "activity change, negative = inhibition": "inactive: -2.14%"},
      {"smiles": "Cc1cc(C(=O)Nc2sc(C)c(C)c2C#N)no1", "Potency": "inconclusive: 89.1 µM [inhibitor, partial curve, poor fit]"},
      {"smiles": "O=C(Oc1ccc2c3c(c(=O)oc2c1)CCC3)c1ccco1", "Potency": "inconclusive: 70.8 µM [inhibitor, single point]"},
      {"smiles": "Cc1ccc(C(=O)/C=C/c2ccc(-c3ccccc3[N+](=O)[O-])o2)cc1", "activity change, negative = inhibition": "inactive: -21%"},
      {"smiles": "Cc1ccc2nc(Nc3ccc4[nH]c(=O)[nH]c4c3)c(-n3nc(C)cc3C)nc2c1", "activity change, negative = inhibition": "inactive: 17.7%"},
      {"smiles": "CCc1ccc(CNC(=O)CN2C(=O)CCn3nc(-c4cn(C)c5ccccc45)cc32)cc1", "Potency": "inconclusive: 50.1 µM [inhibitor, partial curve, poor fit]"},
      {"smiles": "CN1C(=O)c2[nH]nc(-c3ccc(F)cc3)c2C1c1ccccn1", "note": "(stereo not given)", "activity change, negative = inhibition": "inactive: 0.713%"},
      {"smiles": "N#Cc1ccc(-n2nccc2-c2cnc3n(c2=O)CCS3)cc1", "Potency": "inconclusive: 50.1 µM [inhibitor, partial curve, poor fit]"},
      {"smiles": "O=c1c(N2CCc3ccccc3C2)csc2ccc(Br)cc12", "Potency": "inconclusive: 10 µM [inhibitor, full curve, poor fit]"},
      {"smiles": "CCCC[n+]1c2ccccc2cc2ccccc21", "Potency": "inconclusive: 17.8 µM [inhibitor, full curve, poor fit]"},
      {"smiles": "O=C(N/N=C/c1ccc(C(=O)O)cc1)C1=NNC(c2ccccc2)(c2ccccc2)C1", "Potency": "inconclusive: 44.7 µM [inhibitor, partial curve, poor fit]"},
      {"smiles": "Cc1ccc2oc3c(c(=O)c2c1)C(c1ccc(OCC(N)=O)cc1)N(Cc1ccc2c(c1)OCO2)C3=O", "note": "(stereo not given)", "activity change, negative = inhibition": "inactive: 0.173%"},
      {"smiles": "CNC(=O)CSc1nnc(NC(=O)Nc2ccccc2)s1", "Potency": "inconclusive: 79.4 µM [inhibitor, partial curve, poor fit]"},
      {"smiles": "O=C(CSc1nnc(-c2ccc(Br)cc2)n1-c1ccccc1)c1ccccc1", "activity change, negative = inhibition": "inactive: -22.4%"},
      {"smiles": "COc1ccc(C2Nc3ccccc3C(=O)N2c2ccc(Cl)cc2)cc1COc1ccc(NC(C)=O)cc1", "note": "(stereo not given)", "activity change, negative = inhibition": "inactive: -36.1%"},
      {"smiles": "CC(=O)Nc1nnc(C)s1", "Potency": "inconclusive: 89.1 µM [inhibitor, single point]"},
      {"smiles": "O=C(NC1CCCCC1)Oc1cccc2ccccc12", "Potency": "inconclusive: 28.2 µM [inhibitor, full curve, poor fit]"},
      {"smiles": "CCn1c(CSc2nc3ccccc3[nH]2)nc2cc(C(=O)O)ccc21", "Potency": "inconclusive: 50.1 µM [inhibitor, partial curve, poor fit]"},
      {"smiles": "O=c1c(-c2ccc(O)cc2)coc2cc(O)ccc12", "Potency": "inconclusive: 0.946 µM [inhibitor, full curve, poor fit]"},
      {"smiles": "COc1ccc(N2C3=C(CC4=C2CCCC4=O)C(=O)CCC3)cc1", "Potency": "inconclusive: 50.1 µM [inhibitor, partial curve, poor fit]"},
      {"smiles": "CCCc1cc(=O)oc2cc(C)c(CN3CCCC3)c(O)c12", "Potency": "inconclusive: 89.1 µM [inhibitor, partial curve, poor fit]"},
      {"smiles": "CNCC(O)CN(c1ccccc1)c1ccccc1", "note": "(stereo not given)", "activity change, negative = inhibition": "inactive: -5.9%"},
      {"smiles": "COc1ccc2[nH]c(=O)c(-c3noc(-c4ccccc4)n3)cc2c1", "Potency": "inconclusive: 28.2 µM [inhibitor, full curve, poor fit]"},
      {"smiles": "COc1ccc(NC(=O)CN(C)C(=O)c2cc(-c3ccc(Cl)cc3)nc3ccccc23)cc1", "activity change, negative = inhibition": "inactive: -33.1%"},
      {"smiles": "CC(=O)Nc1ccc(Oc2cc(NC(C)=O)cc([N+](=O)[O-])c2)cc1", "Potency": "inconclusive: 20 µM [inhibitor, full curve, poor fit]"},
      {"smiles": "Cc1ccc(S(=O)(=O)Cc2nc(-c3ccc(C(=O)NCc4ccccc4F)cc3)oc2C)cc1", "activity change, negative = inhibition": "inactive: -3.22%"},
      {"smiles": "CCC(C)NCCOc1cccc(Br)c1", "note": "(stereo not given)", "activity change, negative = inhibition": "inactive: -18%"},
      {"smiles": "Cc1oc(=O)c(NC(=O)c2ccc(Cl)cc2)cc1C(=O)c1ccccc1", "Potency": "inconclusive: 31.6 µM [inhibitor, full curve, poor fit]"},
      {"smiles": "COc1ccc(C)cc1NC(=O)N1CCC(CN2CCC(C)CC2)CC1", "activity change, negative = inhibition": "inactive: -9.75%"},
      {"smiles": "CC1CCN(C(=O)COC(=O)/C=C/c2ccc([N+](=O)[O-])cc2)CC1", "activity change, negative = inhibition": "inactive: 2.18%"},
      {"smiles": "CC(=O)c1ccc(-c2ccc(C(=O)Nc3nc(C)c(C(C)=O)s3)o2)cc1", "Potency": "inconclusive: 112 µM [inhibitor, partial curve, poor fit]"},
      {"smiles": "COc1nc(Nc2cccc(F)c2)nc(OC)n1", "activity change, negative = inhibition": "inactive: 14.3%"},
      {"smiles": "CCOC(=O)c1ccc(NC(=O)CSCc2ccco2)cc1", "Potency": "inconclusive: 17.8 µM [inhibitor, full curve, poor fit]"},
      {"smiles": "COc1ccccc1NC(=O)COn1nnc2ccc(S(=O)(=O)N3CCOCC3)cc21", "Potency": "inconclusive: 50.1 µM [inhibitor, partial curve, poor fit]"},
      {"smiles": "CCN(CC)S(=O)(=O)c1ccc2oc(SCC(=O)Nc3cc(C)on3)nc2c1", "Potency": "inconclusive: 100 µM [inhibitor, partial curve, poor fit]"},
      {"smiles": "C=CCNC(=O)/C(C#N)=C/c1ccc(OS(=O)(=O)c2ccc(C)cc2)c(OC)c1", "Potency": "inconclusive: 79.4 µM [inhibitor, partial curve, poor fit]"},
      {"smiles": "COc1ccc(Nc2ncnc3c2c(C)c(C)n3CCCN(C)C)cc1", "activity change, negative = inhibition": "inactive: -6.27%"},
      {"smiles": "CCCCCC(=O)Nc1ccc(N2CCN(C(=O)CCC)CC2)cc1", "Potency": "inconclusive: 89.1 µM [inhibitor, single point]"},
      {"smiles": "Cc1ccc(Cn2ccc(NC(=O)c3nn(C)cc3[N+](=O)[O-])n2)cc1", "activity change, negative = inhibition": "inactive: 20.4%"},
      {"smiles": "CCCCC1=CC2=C(c3ccco3)C(=O)C(C)(OC(=O)c3ccc(OC)cc3)C(=O)C2=CN1C(CO)CO", "note": "(stereo not given)", "Potency": "inconclusive: 50.1 µM [inhibitor, partial curve, poor fit]"},
      {"smiles": "O=Cc1c(NCCCN2CCCC2=O)c2ccccc2[nH]c1=O", "Potency": "inconclusive: 100 µM [inhibitor, partial curve, poor fit]"},
      {"smiles": "NC(=S)NN=C(c1ccc(Br)cc1)C1CC1", "Potency": "inconclusive: 50.1 µM [inhibitor, partial curve, poor fit]"},
      {"smiles": "CC1(C)Cc2ccccc2-c2nnc(-c3ccc(O)cc3)n21", "Potency": "inconclusive: 89.1 µM [inhibitor, partial curve, poor fit]"},
      {"smiles": "O=c1[nH]c(/C=C/c2ccccc2Cl)c([N+](=O)[O-])c(=O)[nH]1", "Potency": "inconclusive: 17.8 µM [inhibitor, full curve, poor fit]"},
      {"smiles": "COc1ccc(/C=N/NC(=O)c2cc3c(ccc4ccccc43)o2)cc1OC", "Potency": "inconclusive: 20 µM [inhibitor, full curve, poor fit]"},
      {"smiles": "CS(=O)(=O)c1nc(-c2ccccc2)cc(C(F)(F)F)n1", "Potency": "inconclusive: 44.7 µM [inhibitor, partial curve, poor fit]"},
      {"smiles": "COc1ccc(N2C(=S)N(C(=O)c3ccccc3)C(=Nc3ccccc3)C2=Nc2ccccc2)cc1", "Potency": "inconclusive: 79.4 µM [inhibitor, partial curve, poor fit]"},
      {"smiles": "CC(=O)c1c(C)[nH]c(C(=O)COc2ccc3ccc(=O)oc3c2)c1C", "Potency": "inconclusive: 70.8 µM [inhibitor, partial curve, poor fit]"},
      {"smiles": "Oc1ccc(Nc2nnc(-c3ccc(O)cc3)c3ccccc23)cc1", "Potency": "inconclusive: 100 µM [inhibitor, partial curve, poor fit]"},
      {"smiles": "Cc1ccc(S(=O)(=O)N2CCCCC2)cc1NC(=O)COC(=O)c1cccn1C", "activity change, negative = inhibition": "inactive: -6.92%"},
      {"smiles": "CC1CCC(=C(C#N)c2nc(-c3cc4ccccc4oc3=O)cs2)CC1", "note": "(stereo not given)", "Potency": "inconclusive: 89.1 µM [inhibitor, single point]"},
      {"smiles": "CCOC(=O)Cc1nnc(NC(=O)C(CC)Sc2nc(C)cc(=O)[nH]2)s1", "note": "(stereo not given)", "Potency": "inconclusive: 50.1 µM [inhibitor, partial curve, poor fit]"}
    ]}
  ]
}
